Data on 51 compounds can be found in PubChem BioAssay AID938 (National Center for Advancing Translational Sciences (NCATS), 2007).

Screen size: about 73,000 compounds; about 1,800 (2.5%) were called active. Not shown: some 13% with an inconclusive outcome. Calls come from the whole dose curve; as a rule, active = well fitted activation curve with a large enough effect; inconclusive = small, poorly fitted or top-dose-only effect; inactive = no such curve, though single readings can be large or run the other way. The entries are a selection whose mix differs from that of the whole data set.
Potency is the fitted concentration of half-maximal effect.

The test is described as follows: qHTS Assay for Agonists of the Thyroid Stimulating Hormone Receptor: Activators of Intracellular cAMP Concentrations in Parental HEK 293. For activation: % of control where 0% means no effect. Note: nearly all actives have a fitted effect of over 55% in size. Particulars: parental HEK293 CNG cAMP sensor, membrane potential fluorescence; series mostly up to 57.1 µM; activation: at the top concentration. The method, boiled down: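 Parental HEK 293 cells stably expressing a cAMP-gated CNG channel were loaded with membrane potential dye containing 100 uM RO 20-1724 for 60 min. Compound added for 30 min; depolarization read as fluorescence intensity at 590 nm.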
(In general: In qHTS, concentration-response curves come from the screen itself.)
Regarding `O=c1[nH]c2cc([N+](=O)[O-])c([N+](=O)[O-])cc2[nH]c1=O`, the “activation” value is inactive: 2.52%. Regarding `CC(=O)/C(C)=N\O`, the “activation” value was inactive: -3.42%. Take `O=C(CCc1ccc(O)cc1)c1c(O)cc(O)cc1O`: the Potency result is “inactive”. Still for that read-out and setting: the result for `COC(=O)Nc1nc2ccc(C(=O)c3cccs3)cc2[nH]1` reads “inactive”.

As for `C[C@](O)(C(=O)Nc1ccc(S(=O)(=O)c2ccccc2)cc1)C(F)(F)F`, the “activation” value was inactive: -31.6%. As to `COc1ccc(N2CCN(c3oc(COc4ccccc4)nc3C#N)CC2)cc1`, the Potency is active: 0.794 µM. Take `Cc1c(N(C)C)c(=O)n(-c2ccccc2)n1C`: the Potency entry was “inactive”. For `CCCc1c(-c2ccc(O)cc2)nn(-c2ccc(O)cc2)c1-c1ccc(O)cc1`, the “activation” value was inactive: 9.19%.

For `Cc1ccc2cc(CN(C(=O)c3ccncc3)C(C)C)c(=O)[nH]c2c1`, the “activation” value is inactive: -0.544%. On to `O=C(NCc1ccccc1)[C@H]1C[C@@H]1[C@H](NP(=O)(c1ccccc1)c1ccccc1)c1ccccc1`, for which the “activation” value was inactive: 21.5%. Still for that read-out and setting: then `CCCCCCCCN`, with inactive: -26.1%. As for `NC/C=C\C(=O)O`, the Potency result is “inactive”. With `Cn1cc(-c2nc3cnc(N4CCNCC4)nc3n(CCc3ccccc3)c2=O)c2ccccc21`, the “activation” value is inactive: -38.7%. As to `COc1ccccc1CNc1ncnc2ccc(-c3ccoc3)cc12`, the Potency is active: 20 µM. As to `Clc1ccc(Cn2nnc(-c3ccc(CN4CCOCC4)cc3)n2)cc1`, the Potency was active: 31.6 µM. `NCCc1cnc[nH]1`: the “activation” value is inactive: -4.8%. As to `CC(C)C(=O)Nc1cccc(C(=O)NCc2ccc(S(N)(=O)=O)cc2)c1`, the “activation” value is inactive: -1.01%. For `O=C(NCc1cccs1)c1cnc2sccn2c1=O`, the “activation” value was inactive: 16.7%. For the compound `CCC(=O)NC(C)C(c1cccs1)N1CCOCC1` (stereo unspecified), the “activation” value is inactive: -38.9%.

On to `CCC(C)c1ccc(NC(=O)CC(C)=O)cc1` (stereo unspecified), for which the “activation” value is inactive: -53.9%. For the compound `Cc1nn(-c2ccc(Cl)cc2)c2sc(C(=O)N3CCN(c4ccccn4)CC3)cc12`, the “activation” value was inactive: 4.48%. In the case of `NS(=O)(=O)c1cc2c(cc1Cl)NC=NS2(=O)=O`, the “activation” value is inactive: -8.59%.

Take `COc1ccc(C(=O)N2CCC3(CCCN(c4ccncc4)C3)CC2)cc1`: the Potency was active: 12.6 µM. Take `COc1ccc2cc3cc(C(=O)Nc4ccccc4N4CCN(C)CC4)oc3nc2c1`: the “activation” value is inactive: -68.4%. Regarding `CCOc1ccc(NC(=O)c2nnn(CC(=O)Nc3ccccc3OCC)c2N)cc1`, the “activation” value is inactive: -5.12%. Take `CC(C)[N+](C)(CCOC(=O)C1c2ccccc2Oc2ccccc21)C(C)C`: the “activation” value is inactive: 5.53% [at 25.6 µM]. In the case of `BrC/C=C/CBr`, the “activation” value is inactive: 24.5%. `CCCCN(CC)S(=O)(=O)c1cccc2cccnc12`: the Potency is active: 20 µM. Regarding `CC1=NN(c2ccccc2)C(=O)C1`, the Potency result was “inactive”. As to `O=C(N[C@H](CO)[C@H](O)c1ccc([N+](=O)[O-])cc1)C(Cl)Cl`, the “activation” value is inactive: 12.7%. As for `CCN(CC)CCOC(=O)c1cc(Cl)c(N)cc1OC`, the “activation” value is inactive: 1.01%.

Regarding `Cc1cc(NC(=O)CS(=O)(=O)c2cn(Cc3ccccc3Cl)c3ccccc23)no1`, the Potency is active: 25.1 µM. Consider `Oc1cccc(Nc2ccccc2)c1`, for which the “activation” value was inactive: -17.2%. On to `COc1ccccc1-c1nc(NCc2cccnc2)c2ccccc2n1`, for which the “activation” value is inactive: -54.4%.

On to `COCCn1c(C(=O)N2CCCC2)cc2c1C[C@H]1CN(C(=O)c3ccccc3)[C@@](Cc3ccc(F)cc3)(C(=O)OC)[C@@H]21`, for which the Potency was active: 12.6 µM. With `CO[C@H]1/C=C/O[C@@]2(C)Oc3c(C)c(O)c4c(O)c(c5c(c4c3C2=O)NC2(CCN(CC(C)C)CC2)N=5)=NC(=O)/C(C)=C\C=C\[C@H](C)[C@H](O)[C@@H](C)[C@@H](O)[C@@H](C)[C@H](OC(C)=O)[C@@H]1C`, the “activation” value was inactive: -86.6%.

With `C[C@@H](C(=O)NCc1ccccn1)[C@@H]1C[C@@]1(C)[C@@H](NC(=O)OCc1ccccc1)c1ccccc1`, the “activation” value is inactive: 23%. In the case of `Oc1ccc2cc(SSc3ccc4cc(O)ccc4c3)ccc2c1`, the “activation” value was inactive: 6.27%. For `CN/C(=C\[N+](=O)[O-])NCCSCc1ccc(CN(C)C)o1`, the Potency result was “inactive”.

As for `CCOC(=O)N1CCN(C(=O)c2ccc3c(=O)n(-c4ccc(OC)cc4OC)c(=S)[nH]c3c2)CC1`, the “activation” value is inactive: -1.15%.

On to `CC(=O)[C@H](CC(C)C)NC(=O)[C@@H](CC(C)C)NC(=O)[C@H](CC(C)C)NC(=O)OCc1ccccc1`, for which the Potency was active: 25.1 µM. For `CCCCCCO`, the “activation” value was inactive: -18.3%.

With `O=C1[C@H]2[C@H]3[C@H](O)[C@H](O)C/C(=N/OCc4ccccc4)[C@H]3CC[C@@H]2C(=O)N1C[C@@H]1CCCO1`, the activation was inactive: -7.4% [at 11.4 µM].

As for `Cc1cccc(N2CCN(C(=O)c3ccc(CS(=O)(=O)c4ccccc4C)o3)CC2C)c1` (stereo unspecified), the Potency was active: 25.1 µM. Turning to `Cn1c(=O)c(C(=O)CN2CCOCC2)c(N)n(Cc2ccccc2)c1=O`, the “activation” value was inactive: 12.3%. In the case of `ON=C1CCCCC1`, the “activation” value is inactive: -28.8%.

For the compound `O=C(Nc1ccc(F)cc1)c1ccc(S(=O)(=O)NCC2CCCO2)cc1` (stereo unspecified), the Potency is active: 3.16 µM. For the compound `Cc1cccn2c(=O)c3cc(C(=O)NC4CCCC4)c(=N)n(C4CCCC4)c3nc12`, the “activation” value is inactive: -55.4%. In the case of `O=C(Cl)c1cccc([N+](=O)[O-])c1`, the “activation” value was inactive: -16.2%. For the compound `COc1cccc(-c2nnc(SCc3ccc(C#N)cc3)n2Cc2ccco2)c1`, the Potency was active: 6.31 µM. The same measure, in the same setting: then `COc1ccc2nc3c(c(-c4ccccc4)c2c1)CCC3`, with active: 25.1 µM.
